The record followed here is PubChem BioAssay AID485344 (National Center for Advancing Translational Sciences (NCATS), 2010).

The whole screen tested about 340,000 compounds, of which about 6,900 (2%) were called active. No stated cut-off is given here; in the data, active means inhibition above about 30%; inactive means below that, where a call was filed. The entries are a selection whose mix differs from that of the whole data set. Entries without a call were filed so in the source.

Sequence of UniProt P14416 (P14416 whole entry, looked up): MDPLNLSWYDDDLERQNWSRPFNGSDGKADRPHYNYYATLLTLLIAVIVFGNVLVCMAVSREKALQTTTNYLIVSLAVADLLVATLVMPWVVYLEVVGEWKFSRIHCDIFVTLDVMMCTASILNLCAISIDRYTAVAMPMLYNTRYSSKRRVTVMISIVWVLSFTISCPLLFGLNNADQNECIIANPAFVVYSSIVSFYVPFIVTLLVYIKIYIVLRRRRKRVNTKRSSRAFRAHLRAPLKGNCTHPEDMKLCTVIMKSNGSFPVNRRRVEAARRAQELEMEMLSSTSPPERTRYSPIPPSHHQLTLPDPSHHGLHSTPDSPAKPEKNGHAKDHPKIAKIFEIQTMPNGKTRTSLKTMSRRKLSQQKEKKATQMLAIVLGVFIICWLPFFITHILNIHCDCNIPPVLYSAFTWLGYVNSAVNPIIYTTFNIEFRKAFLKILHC

For this assay, the target named is D(2) dopamine receptor (Homo sapiens) (UniProt P14416). In words: HTS Assay for Allosteric Antagonists of the Human D2 Dopamine Receptor: Primary Screen for Antagonists. Further: 0% is about no effect. The conditions noted are these: HEK293 TREx D2 cells, calcium flux, dopamine EC80; at 10 µM; stronger effect = higher value. The method, boiled down:
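Dopamine at EC80 is the agonist stimulus; test compounds precede it by 180 s. Calcium flux read kinetically in a force-coupled, inducible HEK293 T-REx D2 cell line.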
In general terms: Calcium assays in cells follow changes in intracellular calcium, usually with a dye or a luminescent sensor.
As for `COc1ccc(NC(=O)C(Cc2c[nH]c3ccccc23)NC(=O)OC(C)(C)C)cc1` (centres undefined), the inhibition was -5.21%.
The figure for `O=C(CSc1nc(=O)[nH]c2c1CCCC2)Nc1ccc(Cl)c(Cl)c1` is -5.15%; for `COc1ccc(OC)c(/C=C/C(=O)Nc2ccc3c(c2)CCC3)c1` it is active: 49.4%.
The figure for `CCN(CC)C(=O)c1ccc2c(c1)N(Cc1c(F)cccc1Cl)C(=O)c1ccccc1S2` is 3.39%; for `Cc1ccc2cc3cc(C(=O)N4CCN(c5ccc(Cl)cc5)CC4)oc3nc2c1` it is 2.51%; for `COc1cc2[nH]c(C(=O)NCC3CCCO3)cc2c(OC)c1OC` (centres undefined) it is active: 55.3%.
The figure for `Cc1ccccc1NC(=O)c1c(NC(=O)c2ccccc2)sc2c1CCC2` is 1.03%; for `O=C(COc1ccccc1Cl)Nc1ccccc1C(=O)Nc1cccc(C(=O)O)c1` it is active: 30.6%.
Consider `CCN(CC)C(=O)c1sc2c(c1C)c(=O)n(-c1ccccc1)c(=O)n2Cc1c(C)cc(C)cc1C`, for which the inhibition was -24.6%.
With `COc1ccc(-c2cn3nc(N4CCC(C(=O)Nc5ccccc5OC)CC4)sc3n2)cc1`, the inhibition is -23.8%.
Turning to `CCOc1ccc(NC(=O)CC2C(=O)N(c3ccccc3)C(=O)N2CCc2cccs2)cc1` (centres undefined), the inhibition is -24.8%.
`OCCNC(=S)Nc1ccc2nsnc2c1`: the inhibition was active: 30.7%.
The figure for `O=C(O)CC/C(=N\Nc1ccc(S(=O)(=O)N2CCOCC2)cc1[N+](=O)[O-])c1cccs1` is active: 30%; for `COc1ccc(OC)c(NC(=O)CCCc2nnc3n(C(C)C)c(=O)c4sccc4n23)c1` it is 7.69%.
In the case of `CCn1cc2nc(SCc3cccc(C(F)(F)F)c3)n(Cc3ccc(Cl)cc3)c(=O)c2n1`, the inhibition worked out at 0.626%.
Take `Cc1ccc(Cl)cc1-n1nnc(-c2nsc(NC(=O)c3ccccc3Cl)n2)c1C`: the inhibition was -15.4%.
With `Cc1ccc2oc(C(=O)Nc3ccc(S(=O)(=O)N4CCCC(C)C4)cc3)cc(=O)c2c1` (centres undefined), the inhibition was -12.7%.
The figure for `CCN(Cc1ccccc1)Cc1ccc(OCc2ccccc2)cc1` is active: 31.1%; for `Cc1ccc(C)c(N2CCN(C(=O)c3cnn(C(C)(C)C)c3C3CCN(C(=O)OC(C)(C)C)CC3)CC2)c1` it is -4.62%.
The figure for `CCc1ccc(-n2c(=O)c3ccccc3n(CC(=O)NCCc3ccc(OC)c(OC)c3)c2=O)cc1` is 4.83%; for `Cc1ccc(N(CC(=O)N2CCN(c3cccc(Cl)c3)CC2)S(=O)(=O)c2c(C)noc2C)cc1` it is -1.3%; for `COc1ccc(C)cc1NC(=O)N1CCC(CN2CCOCC2)CC1` it is 3.65%.
With `Cc1cc(C)cc(-n2ccnc(NCCc3ccccc3)c2=O)c1`, the inhibition worked out at 2.77%.
The figure for `COc1ccc(C(=O)Nc2ccc3nc4c(c(Nc5ccc(OC)c(OC)c5)c3c2)CCCC4)c(OC)c1` is -8.45%; for `CCOC(=O)c1cc2c(=O)n3ccccc3nc2n(CC(C)C)c1=NC(=O)COc1ccc(Cl)cc1` it is -7.01%.
The figure for `COc1ccc(-c2nc(CS(=O)CC(=O)NCCc3ccccc3)c(C)o2)cc1OC` (centres undefined) is 2.24%; for `Cc1ccc(CCNC(=O)c2sc3ncccc3c2-n2c(C)ccc2C)cc1` it is 5.36%.
The figure for `CC1CCCCN1c1c(S(=O)(=O)c2ccc(Cl)cc2)cnc2ccccc12` (centres undefined) is 2.52%; for `CCC(=O)Nc1ccc(CC)cc1-c1nc2ccccc2n(CC(=O)Nc2cccc(OC)c2)c1=O` it is 10.5%; for `COc1cccc(C2=CC(c3ccccc3F)n3ncc(C(=O)Nc4ccc(C)cc4)c3N2)c1` (centres undefined) it is 1.05%.
In the case of `Cc1ccc(-n2nc(-c3ccc(F)cc3)c3cnc4cc5c(cc4c32)OCO5)cc1C`, the inhibition was found to be 3.1%.
The figure for `COc1ccccc1-c1cc(C(=O)N/N=C/c2cccs2)c2ccccc2n1` is active: 72.4%; for `Cc1ccc(Cl)cc1N1CCN(C(=O)CCSCc2ccccc2F)CC1` it is -13.6%.
The figure for `Cc1c(C(=O)Nc2ccc(Br)cc2F)oc2ccc(S(=O)(=O)N3CCC4(CC3)OCCO4)cc12` is 17.9%; for `CCc1ccc(-c2cc(C)no2)cc1S(=O)(=O)N1CCN(c2cccc(Cl)c2)CC1` it is 6.74%.
Regarding `COc1ccc(NC(=O)c2oc3ccc(S(=O)(=O)N(C)C4CCCCC4)cc3c2C)cc1Cl`, the inhibition is -24.8%.
The figure for `O=C(CCCc1nc(-c2ccco2)no1)Nc1ccccc1[N+](=O)[O-]` is 4.43%.
The figure for `COc1cccc(-n2c(=O)c3c4c(sc3n(Cc3ccc(F)cc3Cl)c2=O)CCCC4)c1` is 18.7%; for `COc1ccc(C2=NN(C(C)=O)C(c3cn(-c4ccccc4)nc3-c3cccs3)C2)cc1` (centres undefined) it is 8.69%; for `COc1ccc(-c2[nH]ncc2C(=O)NCc2cccc(F)c2)cc1` it is 24.8%.
Regarding `CCC1CCCCN1S(=O)(=O)c1ccc(N2CCCCS2(=O)=O)cc1` (centres undefined), the inhibition was -3.21%.
The figure for `CC(=O)Nc1c(C(=O)Nc2cccc(C)c2)nnn1-c1ccc(C)cc1` is 14.5%.
The figure for `CCOC(=O)c1ccc(NC(=O)c2c(C)oc3nc(C)nc(N4CCCC4)c23)cc1` is 4.66%.
The figure for `Cn1c(=O)c2c(SCC(=O)NCc3ccco3)nc(-c3ccccc3F)nc2n(C)c1=O` is -10.5%; for `CC(C)N1CC(COc2ccc(Br)cc2)OC1=O` (centres undefined) it is active: 41.2%; for `Cc1ccc(NC(=O)Nc2cc3c(cc2N2CCCCC2)n(C)c(=O)n3C)cc1Cl` it is -10.9%.
With `COc1ccc(NC(=O)CC2C(=O)N(c3ccccc3)C(=O)N2Cc2cccnc2)cc1` (centres undefined), the inhibition worked out at 3.42%.
The figure for `Cc1ccc(CN(C(=O)c2ccccc2Br)C2CCS(=O)(=O)C2)o1` (centres undefined) is 2.88%; for `O=C(Nc1ccc2oc(-c3ccc4ccccc4c3)nc2c1)c1cc(Br)ccc1Cl` it is 10.5%.
As for `O=C(NCc1ccc(Cl)cc1)C(=O)Nc1cccc(Br)c1`, the inhibition was found to be 7.09%.
The figure for `CC1CCC(NC(=O)c2ccc3c(c2)N(Cc2cccc(Cl)c2)C(=O)c2ccccc2S3=O)CC1` (centres undefined) is -0.641%; for `O=C(Nc1ccccc1)c1cccc(N2C(=O)C3C4C=CC(C5CC45)C3C2=O)c1` (centres undefined) it is active: 32.4%; for `CCN(CC)C(=O)c1sc(NC(=O)C2c3ccccc3Oc3ccccc32)c(C(=O)OC(C)C)c1C` it is -15.7%.
Take `Cc1cc(C)c(Cn2c(=O)n(CCCCCC(=O)NCc3ccc4c(c3)OCO4)c(=O)c3sccc32)c(C)c1`: the inhibition is -8.99%.
In the case of `O=C(CSCc1ccc(F)cc1)N1CCN(c2ccccc2)CC1`, the inhibition worked out at 2.97%.
As to `CN(C)c1ccc(C(CNS(=O)(=O)c2cc(F)ccc2F)N2CCOCC2)cc1` (centres undefined), the inhibition was -2.71%.
`COc1cccc(NC(=O)Cn2c(=O)n(-c3cccc(OC)c3)c(=O)c3c4c(sc32)CCCC4)c1`: the inhibition was -22.8%.
The figure for `CCOc1ccc(Nc2nc3ccccc3c3nnc(CC)n23)cc1` is 9.61%; for `COc1ccc(NS(=O)(=O)c2ccc3[nH]c4c(c3c2)CCCC4)c(OC)c1` it is 6.2%.

Usually inhibition stands for the drop in the measured response relative to a control, in per cent.
